Article PMC4336329 (PLoS ONE, 2015)
About 14,000 (4.5%) of roughly 310,000 compounds showed an effect of 50% or more. The effect is printed as a negative number. Some of the results follow.

target: human ether-à-go-go-related gene (hERG) potassium channel (human, UniProt Q12809); test: primary screen, population patch clamp on CHO cells stably expressing hERG
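Note: peak tail current of the secondary pulse compared with the same well before compound.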

Sequence of human ether-à-go-go-related gene (hERG) potassium channel (Q12809 whole entry, looked up): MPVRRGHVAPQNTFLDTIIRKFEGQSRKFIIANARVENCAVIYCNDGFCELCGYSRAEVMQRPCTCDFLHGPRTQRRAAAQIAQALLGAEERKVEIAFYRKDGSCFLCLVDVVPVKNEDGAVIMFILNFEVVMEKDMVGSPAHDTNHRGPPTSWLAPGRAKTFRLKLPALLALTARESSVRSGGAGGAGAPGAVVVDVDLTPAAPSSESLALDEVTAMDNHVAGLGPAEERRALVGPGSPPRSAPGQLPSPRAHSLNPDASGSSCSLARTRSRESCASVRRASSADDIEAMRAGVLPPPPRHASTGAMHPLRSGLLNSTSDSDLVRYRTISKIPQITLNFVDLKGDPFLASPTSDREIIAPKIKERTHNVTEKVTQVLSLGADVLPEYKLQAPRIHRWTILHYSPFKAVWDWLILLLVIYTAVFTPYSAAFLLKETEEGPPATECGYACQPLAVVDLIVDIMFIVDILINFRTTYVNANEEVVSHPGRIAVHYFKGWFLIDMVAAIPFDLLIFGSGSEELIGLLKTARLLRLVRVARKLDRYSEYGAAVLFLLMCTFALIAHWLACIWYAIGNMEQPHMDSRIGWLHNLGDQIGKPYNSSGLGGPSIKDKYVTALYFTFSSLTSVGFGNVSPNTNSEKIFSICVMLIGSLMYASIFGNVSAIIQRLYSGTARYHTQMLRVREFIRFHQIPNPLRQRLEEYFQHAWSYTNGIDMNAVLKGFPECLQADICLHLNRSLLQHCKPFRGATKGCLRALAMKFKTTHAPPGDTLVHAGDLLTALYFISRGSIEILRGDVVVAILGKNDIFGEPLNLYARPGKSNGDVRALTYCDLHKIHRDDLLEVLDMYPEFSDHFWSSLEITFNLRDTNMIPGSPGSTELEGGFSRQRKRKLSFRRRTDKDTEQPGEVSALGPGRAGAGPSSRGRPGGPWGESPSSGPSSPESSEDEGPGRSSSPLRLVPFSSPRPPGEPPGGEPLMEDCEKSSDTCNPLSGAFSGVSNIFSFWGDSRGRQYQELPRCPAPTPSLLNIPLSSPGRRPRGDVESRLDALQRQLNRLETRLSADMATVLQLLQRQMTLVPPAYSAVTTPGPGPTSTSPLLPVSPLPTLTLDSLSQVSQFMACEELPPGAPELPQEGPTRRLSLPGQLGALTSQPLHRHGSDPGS

SMILES	hERG current change (%, negative = inhibition) at 10uM [%]
Cc1ccc(C(=O)c2ncc[nH]2)cc1	4.75
O=c1[nH]n2c(C(F)(F)F)cc(C3CC3)nc2c1N=Nc1ccccc1	12.2
CCC(=O)N1CCN(c2ccnc3cc(Cl)ccc23)CC1	-63.6
CCc1cccc(OCC(=O)Nc2cc(Cl)ccc2-n2cncn2)c1	-25.6
COc1ccccc1NC(=O)C1(C)Cc2ccccc2C(=O)O1 (stereo not shown)	-10.2
N#Cc1ccc(NC(=S)NCCN2CCOCC2)cc1	-0.742
FC(F)(F)C(Oc1nc(NC2CCCCC2)nc(N2CCOCC2)n1)C(F)(F)F	14.7
Cn1c(=O)c2c(-c3ccccc3)n(-n3cnnc3)cc2n(C)c1=O	-6.8
Cn1c(=O)c2c(nc(NCc3cccnc3)n2Cc2cccc(C(F)(F)F)c2)n(C)c1=O	-28.8
CCOc1ccc2[nH]cc(C(=O)NCCCN3CCOCC3)c(=O)c2c1	16.3
O=C(CCc1nc2ccccc2c(=O)[nH]1)Nc1nc(-c2cccs2)cs1	-10.3
C/C(N)=C(/C#N)C(=O)COC(=O)C1CCN(C(=O)c2ccc(Cl)cc2)CC1	-14.3
FC(F)(F)c1nc2ccccc2n2c(-c3ccc(Cl)cc3Cl)nnc12	-18.6
CCCCNC(=O)C(=O)N/N=C/c1cccc(Br)c1	-3.36
Cc1ccc(C(=O)NC(C)c2ccc(-n3ccnc3)cc2)c(C)c1 (stereo not shown)	-57.4
O=[N+]([O-])c1ccc(N2CCN(CCOc3nonc3-c3ccccc3)CC2)c(Cl)c1	-4.17
CCOC(=O)c1c(-c2ccccc2)oc2ccc(OCC)cc12	2.75
O=C(COc1ccccc1Cl)Nc1ccc(C(=O)N2CCCCC2)cc1	-22.9
N#CCCn1ncc2ccccc21	14.8
CC(C)(C)Nc1nc2nonc2nc1NC(C)(C)C	7.77

SMILES	hERG current change (%, negative = inhibition) at 10uM [%]
COc1ccc(C(=O)NCc2nnc(SCC(=O)Nc3cc(C)on3)o2)cc1OC	3.22
O=C(CCCCCN1C(=O)c2ccccc2C1=O)Nc1ccccc1	-10.6
CSc1ccc(/C=C/C(=O)OCC(=O)c2ccc[nH]2)cc1	7.65
COc1ccccc1C(=O)NCCC(=O)Nc1cccc(C)n1	12.3
O=C(CC1C(=O)NCCN1CC(c1ccccc1)c1ccccc1)NC1CC1 (stereo not shown)	35.1
COc1cc(OC)c(-c2nc3c[n+](CC(=O)c4ccccc4)ccc3n2C)cc1OC.[Br-]	1.76
CN(Cc1cccnc1)C(=O)CC1C(=O)NCCN1Cc1ccc(-c2ccccc2)cc1 (stereo not shown)	-0.176
Oc1c(C(c2ccccn2)N2CCOCC2)ccc2cccnc12 (stereo not shown)	19.8
COc1cccc(NC(=O)N2C3CCCC2CC(NC(=O)C2CC2)C3)c1 (stereo not shown)	6.96
Oc1ccccc1-c1nc(NCCN2CCOCC2)c2ccccc2n1	-26.2
CCN(CC)c1nc(-c2nn[nH]n2)nc(N(CC)CC)n1	10
Cc1cc(=O)n2c3c(cccc13)CCC2	5.72
COCCCNC(=O)c1cc(=O)n(Cc2ccc(Cl)cc2)c2ccccc12	8.7
O=C(O)C1CC(=O)N(Cc2ccc3c(c2)OCO3)C1 (stereo not shown)	0.204
O=C(NCCC1CCCCN1S(=O)(=O)c1ccccc1)C(=O)NCc1ccccc1 (stereo not shown)	-20.5
COc1cc2c(C(=O)N3CCCc4ccccc43)cn(C)c(=O)c2cc1OC	5.98
CC1Cn2c(nc(=O)c3c2NCN(CCc2ccccc2)C3)S1 (stereo not shown)	13.5
CC(C)Oc1ccc(S(=O)(=O)N2CCCCC2)cc1NC(=O)C1CSC2(C)CCC(=O)N12 (stereo not shown)	-20.9
O=C1CCC/C(=N/Nc2ccc(Cl)cc2)C1	9.93
CC(C)Sc1nc2ccccc2c(=O)[nH]1	4.07

SMILES	hERG current change (%, negative = inhibition) at 10uM [%]
CN(C)c1cc(Nc2ccc(O)cc2)c([N+](=O)[O-])c2nonc12	4.25
CCOCCCNC(=O)Cc1ccc(-n2c(CC)nc3cccnc32)cc1	-8.18
CCN(c1ccc(F)cc1)S(=O)(=O)c1ccc2[nH]cc(C(=O)NCCCN3CCOCC3)c(=O)c2c1	-7.11
COc1cccc(C(=O)N2CCCN(C)CC2)c1OC	4.44
Cc1ccc(OCCC(=O)OCC(=O)NC2CCCC2)cc1	4.57
O=C(CSCCc1ccccn1)Nc1cccnc1	18.4
COc1ccccc1CNC(=O)/C(C#N)=C/c1ccc(OC)c(OC)c1OC	-7.1
Cc1ccccc1OCc1n(CC(=O)OC2CC(C)CCC2C(C)C)c2ccccc2[n+]1C.[Cl-] (stereo not shown)	-72
Cc1ccc(CN2CCN(Cc3ccccc3)CC2)cc1	-36
CSc1ccc(S(=O)(=O)NCC(=O)OCCOc2ccccc2)cc1[N+](=O)[O-]	-1.58
C/C=C1/C[N+]2(C)CCC34C(=C(C=O)[C@H]1C[C@@H]32)Nc1ccccc14.[Cl-] (stereo partly shown)	10.6
Clc1ccc(CCNc2nc3ccccc3n3nnnc23)cc1	2.56
Cl.O=C(O)c1ccc(Nc2c3ccccc3nc3ccccc23)cc1	-2.61
COc1ccc(CCNC(=O)c2c(O)c3c([nH]c2=O)CCCC3)cc1	3.52
C=C(C)c1cccc(C(C)(C)NC(=O)N2CCN(c3ccccn3)CC2)c1	-27.1
CCN(CC)c1ccc(/C=N/N2CC(=O)NC2=S)cc1	6.54
O=C(O)c1cccc2c1NC(C(=O)O)C1CC(Sc3ccccc3[N+](=O)[O-])C(Cl)C21 (stereo not shown)	-0.458
CCN1CCN(C(=O)c2cc3c(=O)n4ccccc4nc3s2)CC1	11.2
